Laboratory results: paper PMC12136788
The other results are listed elsewhere or left out.

B1: chr9:128108756:128108857:+|3pUTR|ENSG00000148339|msi1|total|mutant (ssRNA)
RNA: GGGAGUUCUACAGUCCGACGAUCAAGGCAGCAGCCCUGGCUCCUUUCCUUUGGCAGGUUGGGGAAGGGCUUGCCCCCAGCCUCCGGAUUUCAGGGUUUGACUGGGGGCGUGGAGAGAGAGGGAGGAACCUCAAUAACCUUGAACAACAGAGGAUUGAGCAUCA
B2: chr6:43012266:43012370:-|3pUTR|ENSG00000124733|unk|total|mutant (ssRNA)
RNA: GGGAGUUCUACAGUCCGACGAUCGAGACCCACUUUAUUCAGUUCUGUACAUAUGGGGACAUCGGUCCAAGCCCAACCCACCUCCGCAUGUAUCACUCUGUGGAGAAUAAAGCACCCUAUGUACACAGCCAAAAGCCGCACUGCCAACAGAGGAUUGAGCAUCA
B3: chr3:105576037:105576138:+|3pUTR|ENSG00000170017|msi1|FALSE|unique (ssRNA)
RNA: GGGAGUUCUACAGUCCGACGAUCCUCCGUUUAAUAAAAGCUUCCGUAGUGCAUUGGUAUGGAUUAAAUGCAUAAAAUAUUCUUAGACUCGAUGCUGUAUAAAAUAUUAUGGGAAAAAAAGAAAAUACGUUAUUUUGCCUCUAACAACAGAGGAUUGAGCAUCA
B4: chr10:69104613:69104714:+|3pUTR|ENSG00000122862|unk|total|mutant (ssRNA)
RNA: GGGAGUUCUACAGUCCGACGAUCACAUAUUUUACAGGGUGGAGUGUACUAUAUACUAUUACCUUUGAAUGUGUUUGCAGAGCCCGUGGAUGUGUUUGUCUACAAGUAUGAUUGCUGUUACAUAACACCCCAAAUUAACUCCCACAACAGAGGAUUGAGCAUCA
B5: chr10:72011604:72011705:+|3pUTR|ENSG00000122863|msi1|total|mutant (ssRNA)
RNA: GGGAGUUCUACAGUCCGACGAUCCACCUGCCCGGAGACAGAGGGAGCAGCUGAGGCCUCUCUCCACUGGCCGCCAGCCUCCCCCGCACAAGGGGACCAUUCAGCAAUGAGUGUUUACUCAUGUUCUUUCUUGUUGAUGAGUUCCAACAGAGGAUUGAGCAUCA
B6: chr13:35475095:35475222:-|CDS|ENSG00000180660|unk|total|mutant (ssRNA)
RNA: GGGAGUUCUACAGUCCGACGAUCGCUGCAACUUAUCUCCUGCCUGCAGUGCCGGCGGUGUCCCCACUACUUUCUACCGAACUCCGAUCUGUUUCAAGGCAAACCUCACUCAGCUCUGGAAAACGCUGCCAAACAAACGUGGCGCAACAGAGGAUUGAGCAUCA
B7: ENSG00000198589:be:win_251|CDS|ENSG00000198589|bound_else_gene|NA|bound_elsewhere_windowed (ssRNA)
RNA: GGGAGUUCUACAGUCCGACGAUCUCAUUAUCCAAGAAGGUGAGAGUAUUAACUGCAUGGUGGACCUACUGGAAAAAUGUGACAUUACGUGCCAAGCAGAAGUCUGGAGCAUGUUUACAGCCAUUCUGAAGAAAAGCAUACGGACAACAGAGGAUUGAGCAUCA
B8: ENSG00000198589:be:win_6951|CDS|ENSG00000198589|bound_else_gene|NA|bound_elsewhere_windowed (ssRNA)
RNA: GGGAGUUCUACAGUCCGACGAUCGCAAGGAGGCAAAUUUGAUCAUGCAGAUCGAACUUUUUCAUCAAUUUCCAGAGCUUGGCGAAACAGUCAGCGUGAUACCUCUGAUAUUAAGGAGUUGAUCCCUGAAUUUUAUUAUCUCCCCAACAGAGGAUUGAGCAUCA
B9: ENSG00000107863:be:win_2501|CDS|ENSG00000107863|bound_else_gene|NA|bound_elsewhere_windowed (ssRNA)
RNA: GGGAGUUCUACAGUCCGACGAUCAGGUCCCCUCCAUAGCAACAGUUCCUCCUUGCCUCACAACUUCAGCUCCAUUAAUUCGCCGUCAGCUCUCACAUGACCACGAAUCUGUUGGCCCUCCUAGCCUGGAUGCUCAGCCCAACUCAACAGAGGAUUGAGCAUCA
B10: chr3:41225420:41225524:+|CDS|ENSG00000168036|unk|total|mutant (ssRNA)
RNA: GGGAGUUCUACAGUCCGACGAUCCAUGCGUUCUCCUCAGAUGGUGUCUGCUAUUGUACGUACCAUGCAGAAUACAAAUGAUGCCGAAACAGCUCGUUGUACCGCUGGGACCUUGCAUAACCUUUCCCAUCAUCGUGAGGGCUUCAACAGAGGAUUGAGCAUCA
B11: ENSG00000127954:stop:overlap|stop_codon|ENSG00000127954|stop_codon|NA|stop_codon (ssRNA)
RNA: GGGAGUUCUACAGUCCGACGAUCCAUGUGUAGACAACACCCUUACAAGGAUCCGCCAGGGCUGGGAAAGGAACUCAAAACACUAGAAAAAGCAUUGAAUGGAAAAUCAAUAUUUAAAACAAAGUUCAAUUUAGCUGGAUUUCUCAACAGAGGAUUGAGCAUCA
B12: ENSG00000119285:stop:overlap|stop_codon|ENSG00000119285|stop_codon|NA|stop_codon (ssRNA)
RNA: GGGAGUUCUACAGUCCGACGAUCUGUCGCCUUACUUCCUGCUUAAGCCAGCACAGAAGUGUCUGGAGUGGUUGAUUCACAGGUAGCUAAUAGAAUUACAGAAAUAACUAUGGGUUAAUCACUUUGGUCUUGUAAAAAAUUAAGCAACAGAGGAUUGAGCAUCA
B13: chr1:67413009:67413110:-|3pUTR|ENSG00000142864|unk|total|mutant (ssRNA)
RNA: GGGAGUUCUACAGUCCGACGAUCCUGAAUUUUAUCUGUUUUAAAAAUGAACUUCUCCCGCUACACAGAAGUAACAAAUAUGGCCGUCAGUUUUGUAUUCCGAAAUGUAUUGGCCGCAGGGAUGUUUUCAUAAUUUUCAGAGAUCAACAGAGGAUUGAGCAUCA
B14: chr1:119913532:119913650:-|3pUTR|ENSG00000134250|msi1|FALSE|bound_elsewhere (ssRNA)
RNA: GGGAGUUCUACAGUCCGACGAUCUCAUGCUCUUGGCAAUUUCUUUGACUUUCUUUUAAGGGCAGAAGCAUUUUAGUUAAUUGUAGAUAAAGAAUAGUUUUCUUCCUCUUCUCCUUGGGCCAGUUAAUAAUUGGUCCAUGGCUACAACAGAGGAUUGAGCAUCA
B15: chr9:19286831:19286940:+|CDS|ENSG00000137145|unk|FALSE|unique (ssRNA)
RNA: GGGAGUUCUACAGUCCGACGAUCAUUCCAGGAUGUGAAGUGAUCCUAGCCACACCCUAUGGUCGCUGUGCCAAUGUCAACAAUAGUUCAACUACUUCACAAAGAAUCUUUAUCACUUAUCGAAGGGCUCCUCCAGUUCGACCCCAACAGAGGAUUGAGCAUCA
B16: chr17:49055506:49055607:+|3pUTR|ENSG00000159217|unk|FALSE|unique (ssRNA)
RNA: GGGAGUUCUACAGUCCGACGAUCCACUUCCCGGCUGUGGGGGCUGGGGAGCCACUUGUAACAUUUCUGUGCAGAUUUUAUGUUAGCCACUGCUAUGUAAAAGCACGUUCAAAAUGAAUUUCAGCAGAUUAUGUGUUACCAUAACAACAGAGGAUUGAGCAUCA
B17: chr14:81473690:81473791:-|3pUTR|ENSG00000071537|msi1|total|mutant (ssRNA)
RNA: GGGAGUUCUACAGUCCGACGAUCCAGUGUUUUGGAAGUAUGCAUGCAGGCCUAUAAAUGAAAAACACAAUUCUUUAUGUGUACCGCAUGUGUAUUAAUGUCUAACUACAUACGCAAAAACUUCCUUUACAGAGGUUCGGACUACAACAGAGGAUUGAGCAUCA
B18: chr4:113336597:113336699:+|CDS|ENSG00000145362|unk|FALSE|bound_elsewhere (ssRNA)
RNA: GGGAGUUCUACAGUCCGACGAUCACCUAUGCACAGUGAGCUGGUUAAGAAGAUCCUAGGCAACAAAGCUACCUUCAGCCCUAUAGUCACUUUGGAACCUAGAAGAAGAAAAUUCCACAAACCAAUUACCAUGACCAUUCCUGUCAACAGAGGAUUGAGCAUCA
B19: ENSG00000137168:stop:overlap|stop_codon|ENSG00000137168|stop_codon|NA|stop_codon (ssRNA)
RNA: GGGAGUUCUACAGUCCGACGAUCCAAACUCCCAGGACCGCCCUGUGGACGACGUGAAGAUCAUUAAGGCAUACCCUUCUGGGUAGACUUGCUACCCUCUUGAGCAGCUCUUCUGAGAUGGCCCCAGUGAACCAGCUUCUAGAUCAACAGAGGAUUGAGCAUCA
B20: chr6:21598408:21598509:+|3pUTR|ENSG00000124766|msi1|total|mutant (ssRNA)
RNA: GGGAGUUCUACAGUCCGACGAUCCGUUAAGGGUUUUUGUUUUUAAACUUUUUUUUGCCAUCCAUCCUGUGCAAUAUGCCGUGCCGAAUAUUUGUCUUAAAAUUCAAGGCCACAAAAACAAUGUUUGGGGGAAAAAAAAGAAAACAACAGAGGAUUGAGCAUCA
B21: chr4:138167974:138168075:-|3pUTR|ENSG00000151012|msi1|total|mutant (ssRNA)
RNA: GGGAGUUCUACAGUCCGACGAUCCACAAAAUCUGCAUUGUCCAUGUGAGUAAAGUAAAAUAAUUCCUGUUAUUUUUUUCUGUCCGAAAUAAGUAUGGAGGAUAUGUUUUUAAAAAUUUAUGAGUUAAUUGAAAUAUCCAUAUACAACAGAGGAUUGAGCAUCA
B22: chr2:189754195:189754303:-|CDS|ENSG00000128694|unk|FALSE|unique (ssRNA)
RNA: GGGAGUUCUACAGUCCGACGAUCCCAGAGUGCUCCACCAUGAGUGGUGGGAAAGCCAUAGAACAUUUGGCCAAACAAGGAAAUAGAUUUCAUUUUGACAUCAAACCUCCCUUGCAUCAUGCUAAAAAUUGUGAUUUUUCUUUUCAACAGAGGAUUGAGCAUCA

These binders were tested against MSI1 full-length (mouse, UniProt Q61474 1-362) (assay: nsRBNS (natural sequence RNA bind-n-seq); RBNS binding buffer (assumed for nsRBNS): 25 mM Tris pH 7.5, 150 mM KCl, 3 mM MgCl2, 0.01% Triton X-100, 500 ug/ml BSA, 20 U/ml SUPERase-In, 4 C; UNK is unkempt and MSI1 is Musashi-1; names of the RNAs are library labels; protein concentration not given here; high values mean tight binding).
Sequence of UniProt Q61474 (Q61474 whole entry): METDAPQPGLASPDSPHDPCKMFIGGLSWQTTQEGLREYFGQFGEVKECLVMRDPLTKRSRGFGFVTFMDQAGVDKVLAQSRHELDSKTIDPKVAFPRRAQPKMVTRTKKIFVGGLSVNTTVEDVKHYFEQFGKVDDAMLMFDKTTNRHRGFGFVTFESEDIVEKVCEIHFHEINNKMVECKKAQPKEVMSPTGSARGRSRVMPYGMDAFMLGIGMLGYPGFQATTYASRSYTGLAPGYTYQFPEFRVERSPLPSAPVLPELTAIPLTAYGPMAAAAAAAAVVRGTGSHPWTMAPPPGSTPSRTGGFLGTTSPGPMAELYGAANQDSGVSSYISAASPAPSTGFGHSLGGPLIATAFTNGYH
B1 was tested, and the binding signal was 0.404 enrichment R.
Work on B2 yielded a binding signal of 0.482 enrichment R.
B3 was tested, and the binding signal was 3.88 enrichment R.
Binder B4 has a binding signal of 0.281 enrichment R.
With B5 the binding signal was 0.395 enrichment R.
In the case of B6, the binding signal is reported as 0.502 enrichment R.
Work on B7 yielded a binding signal of 0.303 enrichment R.
For B8, the binding signal was 0.275 enrichment R.
Work on B9 yielded a binding signal of 1.07 enrichment R.
B10 showed a binding signal of 0.362 enrichment R.
B11 was tested, and the binding signal was 1.89 enrichment R.
B12 gave a binding signal of 0.307 enrichment R.
B13 was tested, and the binding signal was 0.413 enrichment R.
Work on B14 yielded a binding signal of 5.19 enrichment R.
Binder B15 has a binding signal of 0.747 enrichment R.
B16 was tested, and the binding signal was 0.398 enrichment R.
With B17 the binding signal was 0.436 enrichment R.
Work on B18 yielded a binding signal of 1.42 enrichment R.
B19 gave a binding signal of 0.384 enrichment R.
B20 gave a binding signal of 0.293 enrichment R.
B21 showed a binding signal of 0.651 enrichment R.
In the case of B22, the binding signal is reported as 0.306 enrichment R.
